# Laboratory results taken from the supplement of paper PMC8728848.
# The other results are listed elsewhere or left out.
# B1: Dectin2 (Homo sapiens), Q6EIG7 (protein)
# chain: MMQEQQPQSTEKRGWLSLRLWSVAGISIALLSACFIVSCVVTYHFTYGETGKRLSELHSYHSSLTCFSEGTKVPAWGCCPASWKSFGSSCYFISSEEKVWSKSEQNCVEMGAHLVVFNTEAEQNFIVQQLNESFSYFLGLSDPQGNNNWQWIDKTPYEKNVRFWHLGEPNHSAEQCASIVFWKPTGWGWNDVICETRRNSICEMNKIYL
# Assays:
# Experiment in all cases: glycan array binding signal (z-score within array); higher = stronger binding
# Details in all cases: glycan notation: IUPAC condensed, linker removed
# [1] = biological target: GlcNAc(b1-3)Gal(b1-4)GlcNAc(b1-3)Gal(b1-4)GlcNAc(b1-3)Gal(b1-4)GlcNAc(b1-3)Gal(b1-4)GlcNAc(b1-2)[GlcNAc(b1-3)Gal(b1-4)GlcNAc(b1-3)Gal(b1-4)GlcNAc(b1-3)Gal(b1-4)GlcNAc(b1-3)Gal(b1-4)GlcNAc(b1-6)]Man(a1-6)[GlcNAc(b1-3)Gal(b1-4)GlcNAc(b1-3)Gal(b1-4)GlcNAc(b1-3)Gal(b1-4)GlcNAc(b1-3)Gal(b1-4)GlcNAc(b1-2)Man(a1-3)]Man(b1-4)GlcNAc(b1-4)[Fuc(a1-6)]GlcNAc
# Outline: (§1)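 Columns mapping to the same glycan were averaged after glycan names were converted to IUPAC-condensed notation. The data come from 3228 arrays in the Consortium for Functional Glycomics database, limited to those with an available protein sequence. Binding is reported as a within-array Z-score averaged across arrays of one protein sequence and across linkers.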
# [2] = biological target: GlcNAc(b1-3)Gal(b1-4)GlcNAc(b1-3)Gal(b1-4)GlcNAc(b1-3)GalNAc
# Outline: as §1
# [3] = biological target: GlcNAc(b1-3)Gal(b1-4)GlcNAc(b1-3)GalNAc
# Outline: as §1
# [4] = biological target: GlcNAc(b1-3)Gal(b1-4)GlcNAc(b1-3)[GlcNAc(b1-3)Gal(b1-4)GlcNAc(b1-3)]GalNAc
# Outline: as §1
# [5] = biological target: GlcNAc(b1-3)Gal(b1-4)GlcNAc(b1-6)[Gal(b1-3)]GalNAc
# Outline: as §1
# [6] = biological target: GlcNAc(b1-3)Gal(b1-4)GlcNAc(b1-6)[GlcNAc(b1-3)Gal(b1-3)]GalNAc
# Outline: as §1
# [7] = biological target: GlcNAc(b1-3)Gal(b1-4)GlcNAc(b1-6)[GlcNAc(b1-3)]Gal(b1-4)GlcNAc
# Outline: as §1
# GlcNAc(b1-3)GalNAc = biological target: GlcNAc(b1-3)GalNAc
# Outline: as §1
# GlcNAc(b1-3)Man = biological target: GlcNAc(b1-3)Man
# Outline: as §1
# [8] = biological target: GlcNAc(b1-3)[GlcNAc(b1-4)][GlcNAc(b1-6)]GlcNAc
# Outline: as §1
# [9] = biological target: GlcNAc(b1-3)[GlcNAc(b1-6)]Gal(b1-4)GlcNAc
# Outline: as §1
# [10] = biological target: GlcNAc(b1-3)[GlcNAc(b1-6)]GalNAc
# Outline: as §1
# [11] = biological target: GlcNAc(b1-4)Gal(b1-4)GlcNAc
# Outline: as §1
# GlcNAc(b1-4)GlcNAc = biological target: GlcNAc(b1-4)GlcNAc
# Outline: as §1
# [12] = biological target: GlcNAc(b1-4)GlcNAc(b1-4)GlcNAc
# Outline: as §1
# [13] = biological target: GlcNAc(b1-4)GlcNAc(b1-4)GlcNAc(b1-4)GlcNAc(b1-4)GlcNAc
# Outline: as §1
# [14] = biological target: GlcNAc(b1-4)GlcNAc(b1-4)GlcNAc(b1-4)GlcNAc(b1-4)GlcNAc(b1-4)GlcNAc
# Outline: as §1
# [15] = biological target: GlcNAc(b1-4)[GlcNAc(b1-6)]GalNAc
# Outline: as §1
# [16] = biological target: GlcNAc(b1-6)Gal(b1-4)GlcNAc
# Outline: as §1
# GlcNAc(b1-6)GalNAc = biological target: GlcNAc(b1-6)GalNAc
# Outline: as §1
# [17] = biological target: GlcNAc6S(b1-3)Gal(b1-4)GlcNAc
# Outline: as §1
# Kdn(a2-3)Gal(b1-3)GalNAc = biological target: Kdn(a2-3)Gal(b1-3)GalNAc
# Outline: as §1
# Kdn(a2-3)Gal(b1-3)GlcNAc = biological target: Kdn(a2-3)Gal(b1-3)GlcNAc
# Outline: as §1
# Kdn(a2-3)Gal(b1-4)Glc = biological target: Kdn(a2-3)Gal(b1-4)Glc
# Outline: as §1
# Kdn(a2-3)Gal(b1-4)GlcNAc = biological target: Kdn(a2-3)Gal(b1-4)GlcNAc
# Outline: as §1
# [18] = biological target: Kdn(a2-3)Gal(b1-4)[Fuc(a1-3)]GlcNAc
# Outline: as §1
# Kdn(a2-6)Gal(b1-4)GlcNAc = biological target: Kdn(a2-6)Gal(b1-4)GlcNAc
# Outline: as §1
# [19] = biological target: Man(a1-2)Man(a1-2)Man(a1-3)Man
# Outline: as §1
# [20] = biological target: Man(a1-2)Man(a1-2)Man(a1-6)[Man(a1-3)]Man
# Outline: as §1
# Man(a1-2)Man(a1-3)Man = biological target: Man(a1-2)Man(a1-3)Man
# Outline: as §1
# [21] = biological target: Man(a1-2)Man(a1-3)[Man(a1-2)Man(a1-6)]Man
# Outline: as §1
# [22] = biological target: Man(a1-2)Man(a1-3)[Man(a1-2)Man(a1-6)]Man(a1-6)[Man(a1-2)Man(a1-2)Man(a1-3)]Man
# Outline: as §1
# [23] = biological target: Man(a1-2)Man(a1-3)[Man(a1-2)Man(a1-6)]Man(a1-6)[Man(a1-2)Man(a1-2)Man(a1-3)]Man(b1-4)GlcNAc(b1-4)GlcNAc
# Outline: as §1
# [24] = biological target: Man(a1-2)Man(a1-3)[Man(a1-6)]Man(a1-6)[Man(a1-2)Man(a1-3)]Man(b1-4)GlcNAc(b1-4)GlcNAc
# Outline: as §1
# [25] = biological target: Man(a1-2)Man(a1-6)[Man(a1-3)]Man(a1-6)[Man(a1-2)Man(a1-2)Man(a1-3)]Man
# Outline: as §1
# [26] = biological target: Man(a1-2)Man(a1-6)[Man(a1-3)]Man(a1-6)[Man(a1-2)Man(a1-2)Man(a1-3)]Man(b1-4)GlcNAc(b1-4)GlcNAc
# Outline: as §1
# Man(a1-3)[Man(a1-6)]Man = biological target: Man(a1-3)[Man(a1-6)]Man
# Outline: as §1
# [27] = biological target: Man(a1-3)[Man(a1-6)]Man(a1-6)[Man(a1-2)Man(a1-3)]Man(b1-4)GlcNAc(b1-4)GlcNAc
# Outline: as §1
# [28] = biological target: Man(a1-3)[Man(a1-6)]Man(a1-6)[Man(a1-3)]Man
# Outline: as §1
# [29] = biological target: Man(a1-3)[Man(a1-6)]Man(a1-6)[Man(a1-3)]Man(b1-4)GlcNAc(b1-4)GlcNAc
# Outline: as §1
# [30] = biological target: Man(a1-3)[Man(a1-6)]Man(b1-4)GlcNAc(b1-4)GlcNAc
# Outline: as §1
# [31] = biological target: Man(a1-3)[Man(a1-6)]Man(b1-4)GlcNAc(b1-4)[Fuc(a1-6)]GlcNAc
# Outline: as §1
# Man(a1-6)Man = biological target: Man(a1-6)Man
# Outline: as §1
# Man(b1-4)GlcNAc = biological target: Man(b1-4)GlcNAc
# Outline: as §1
# MurNAc(b1-4)GlcNAc = biological target: MurNAc(b1-4)GlcNAc
# Outline: as §1
binder,measurement,setting,value
B1,glycan array binding signal (z-score),[1],0.171
same,glycan array binding signal (z-score),[2],-0.197
same,glycan array binding signal (z-score),[3],-0.165
same,glycan array binding signal (z-score),[4],-0.182
same,glycan array binding signal (z-score),[5],-0.196
same,glycan array binding signal (z-score),[6],-0.118
same,glycan array binding signal (z-score),[7],-0.194
same,glycan array binding signal (z-score),GlcNAc(b1-3)GalNAc,-0.172
same,glycan array binding signal (z-score),GlcNAc(b1-3)Man,0.127
same,glycan array binding signal (z-score),[8],1.3
same,glycan array binding signal (z-score),[9],-0.212
same,glycan array binding signal (z-score),[10],-0.17
same,glycan array binding signal (z-score),[11],-0.148
same,glycan array binding signal (z-score),GlcNAc(b1-4)GlcNAc,-0.182
same,glycan array binding signal (z-score),[12],-0.202
same,glycan array binding signal (z-score),[13],-0.186
same,glycan array binding signal (z-score),[14],-0.166
same,glycan array binding signal (z-score),[15],1.29
same,glycan array binding signal (z-score),[16],-0.078
same,glycan array binding signal (z-score),GlcNAc(b1-6)GalNAc,-0.142
same,glycan array binding signal (z-score),[17],-0.166
same,glycan array binding signal (z-score),Kdn(a2-3)Gal(b1-3)GalNAc,-0.142
same,glycan array binding signal (z-score),Kdn(a2-3)Gal(b1-3)GlcNAc,-0.199
same,glycan array binding signal (z-score),Kdn(a2-3)Gal(b1-4)Glc,-0.166
same,glycan array binding signal (z-score),Kdn(a2-3)Gal(b1-4)GlcNAc,-0.172
same,glycan array binding signal (z-score),[18],-0.14
same,glycan array binding signal (z-score),Kdn(a2-6)Gal(b1-4)GlcNAc,-0.177
same,glycan array binding signal (z-score),[19],10.3
same,glycan array binding signal (z-score),[20],13.5
same,glycan array binding signal (z-score),Man(a1-2)Man(a1-3)Man,4.35
same,glycan array binding signal (z-score),[21],7.43
same,glycan array binding signal (z-score),[22],13.9
same,glycan array binding signal (z-score),[23],-0.034
same,glycan array binding signal (z-score),[24],0.767
same,glycan array binding signal (z-score),[25],3.05
same,glycan array binding signal (z-score),[26],1.38
same,glycan array binding signal (z-score),Man(a1-3)[Man(a1-6)]Man,0.968
same,glycan array binding signal (z-score),[27],1.16
same,glycan array binding signal (z-score),[28],0.439
same,glycan array binding signal (z-score),[29],-0.099
same,glycan array binding signal (z-score),[30],0.154
same,glycan array binding signal (z-score),[31],0.486
same,glycan array binding signal (z-score),Man(a1-6)Man,-0.154
same,glycan array binding signal (z-score),Man(b1-4)GlcNAc,-0.061
same,glycan array binding signal (z-score),MurNAc(b1-4)GlcNAc,-0.134
